# Source: the supplement of paper PMC8728848
# The other results are listed elsewhere or left out.
# B1: GS7807H-bfa-490-18-490 (Bacteroides fragilis) (protein)
# chain: GNLEEMNIDPDNATQTHPKLLLTQICMNAFKRGTDGMYATKKVIQADGESADQYYKWTRGSFGYYDNLRNVQKMGEEAERVNAPVYTALTKFFRAYYFYELTLRFGDIPYSQALKGEKEEIYTPEYDAQEDVFAGILQELREADEILANDASVIDGDIIYNGNSTQWRKLINSFRLKVLMTLSNHTTVGNINIASEFKNIATNSPLMNSLADNGQLVYLDQQGNRYPQFNAQWSGYYMDDTFIQRMRERRDPRLFIFSAQTNKGKTEGKPIDDFSSYEGGDPAAPYSDAIIKVSEGTISPINDRFRTDPIVEPTMLMGYAELQQILAEAVVRGWISGNAQTYYEKGIRASFSFYETHAKDYAGYLNENAVAQYLKEPLVDFTQASGTEEQIERIIMQKYLVTFYQGNWDSFYEQLRTGYPDFRRPAGTEIPKRWMYPQGEYDNNGTNVETAITRQFGAGNDKINQATWWQKKS
# Key:
# Experiment in all cases: glycan array binding signal (z-score within array); higher = stronger binding
# Settings in all cases: glycan notation: IUPAC condensed, linker removed
# [1] = molecular target: Man(a1-3)[Man(a1-6)]Man(a1-6)[Man(a1-3)]Man
# How it was run: (§1)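 The binding signal is a Z-score computed within each array. Data were drawn from 3228 arrays in the Consortium for Functional Glycomics database, restricted to those with a known protein sequence. Scores were averaged over arrays of the same protein sequence at different concentrations or buffers, and over linkers, and negative values can be taken as non-binding.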
# [2] = molecular target: Man(a1-3)[Man(a1-6)]Man(a1-6)[Man(a1-3)]Man(b1-4)GlcNAc(b1-4)GlcNAc
# How it was run: as §1
# [3] = molecular target: Man(a1-3)[Man(a1-6)]Man(b1-4)GlcNAc(b1-4)GlcNAc
# How it was run: as §1
# [4] = molecular target: Man(a1-3)[Man(a1-6)]Man(b1-4)GlcNAc(b1-4)[Fuc(a1-6)]GlcNAc
# How it was run: as §1
# Man(a1-6)Man = molecular target: Man(a1-6)Man
# How it was run: as §1
# Man(b1-4)GlcNAc = molecular target: Man(b1-4)GlcNAc
# How it was run: as §1
# MurNAc(b1-4)GlcNAc = molecular target: MurNAc(b1-4)GlcNAc
# How it was run: as §1
# Neu5Ac(a2-3)Gal = molecular target: Neu5Ac(a2-3)Gal
# How it was run: as §1
# [5] = molecular target: Neu5Ac(a2-3)Gal(b1-3)GalNAc
# How it was run: as §1
# [6] = molecular target: Neu5Ac(a2-3)Gal(b1-3)GalNAc(b1-3)Gal(a1-4)Gal(b1-4)Glc
# How it was run: as §1
# [7] = molecular target: Neu5Ac(a2-3)Gal(b1-3)GalNAc(b1-4)[Neu5Ac(a2-3)]Gal(b1-4)Glc
# How it was run: as §1
# [8] = molecular target: Neu5Ac(a2-3)Gal(b1-3)GalNAc(b1-4)[Neu5Ac(a2-8)Neu5Ac(a2-3)]Gal(b1-4)Glc
# How it was run: as §1
# [9] = molecular target: Neu5Ac(a2-3)Gal(b1-3)GalNAc6S
# How it was run: as §1
# [10] = molecular target: Neu5Ac(a2-3)Gal(b1-3)GlcNAc
# How it was run: as §1
# [11] = molecular target: Neu5Ac(a2-3)Gal(b1-3)GlcNAc(b1-2)Man
# How it was run: as §1
# [12] = molecular target: Neu5Ac(a2-3)Gal(b1-3)GlcNAc(b1-2)Man(a1-3)[GlcNAc(b1-4)][Neu5Ac(a2-3)Gal(b1-3)GlcNAc(b1-2)Man(a1-6)]Man(b1-4)GlcNAc(b1-4)GlcNAc
# How it was run: as §1
# [13] = molecular target: Neu5Ac(a2-3)Gal(b1-3)GlcNAc(b1-2)Man(a1-3)[Neu5Ac(a2-3)Gal(b1-3)GlcNAc(b1-2)Man(a1-6)]Man(b1-4)GlcNAc(b1-4)GlcNAc
# How it was run: as §1
# [14] = molecular target: Neu5Ac(a2-3)Gal(b1-3)GlcNAc(b1-3)Gal(b1-3)GlcNAc
# How it was run: as §1
# [15] = molecular target: Neu5Ac(a2-3)Gal(b1-3)GlcNAc(b1-3)Gal(b1-4)GlcNAc
# How it was run: as §1
# [16] = molecular target: Neu5Ac(a2-3)Gal(b1-3)GlcNAc(b1-3)GalNAc
# How it was run: as §1
# [17] = molecular target: Neu5Ac(a2-3)Gal(b1-3)GlcNAc(b1-4)Gal(b1-4)Glc
# How it was run: as §1
# [18] = molecular target: Neu5Ac(a2-3)Gal(b1-3)GlcNAc(b1-6)GalNAc
# How it was run: as §1
# [19] = molecular target: Neu5Ac(a2-3)Gal(b1-3)GlcNAc6S
# How it was run: as §1
# [20] = molecular target: Neu5Ac(a2-3)Gal(b1-3)[Fuc(a1-4)]GlcNAc
# How it was run: as §1
# [21] = molecular target: Neu5Ac(a2-3)Gal(b1-3)[Fuc(a1-4)]GlcNAc(b1-3)Gal(b1-3)[Fuc(a1-4)]GlcNAc
# How it was run: as §1
# [22] = molecular target: Neu5Ac(a2-3)Gal(b1-3)[Fuc(a1-4)]GlcNAc(b1-3)Gal(b1-4)[Fuc(a1-3)]GlcNAc
# How it was run: as §1
# [23] = molecular target: Neu5Ac(a2-3)Gal(b1-3)[GlcNAc(b1-6)]GalNAc
# How it was run: as §1
# [24] = molecular target: Neu5Ac(a2-3)Gal(b1-3)[Neu5Ac(a2-6)]GalNAc
# How it was run: as §1
# [25] = molecular target: Neu5Ac(a2-3)Gal(b1-3)[Neu5Ac(a2-6)]GlcNAc(b1-3)[Fuc(a1-3)[Gal(b1-4)]GlcNAc(b1-6)]Gal(b1-4)Glc
# How it was run: as §1
# [26] = molecular target: Neu5Ac(a2-3)Gal(b1-3)]Neu5Ac(a2-3)Gal(b1-4)]GlcNAc
# How it was run: as §1
# Neu5Ac(a2-3)Gal(b1-4)Glc = molecular target: Neu5Ac(a2-3)Gal(b1-4)Glc
# How it was run: as §1
# [27] = molecular target: Neu5Ac(a2-3)Gal(b1-4)GlcNAc
# How it was run: as §1
# [28] = molecular target: Neu5Ac(a2-3)Gal(b1-4)GlcNAc(b1-2)Man
# How it was run: as §1
# [29] = molecular target: Neu5Ac(a2-3)Gal(b1-4)GlcNAc(b1-2)Man(a1-3)[GlcNAc(b1-4)][Neu5Ac(a2-3)Gal(b1-4)GlcNAc(b1-2)Man(a1-6)]Man(b1-4)GlcNAc(b1-4)GlcNAc
# How it was run: as §1
# [30] = molecular target: Neu5Ac(a2-3)Gal(b1-4)GlcNAc(b1-2)Man(a1-3)[Neu5Ac(a2-3)Gal(b1-4)GlcNAc(b1-2)Man(a1-6)]Man(b1-4)GlcNAc(b1-4)GlcNAc
# How it was run: as §1
# [31] = molecular target: Neu5Ac(a2-3)Gal(b1-4)GlcNAc(b1-2)Man(a1-3)[Neu5Ac(a2-3)Gal(b1-4)GlcNAc(b1-2)Man(a1-6)]Man(b1-4)GlcNAc(b1-4)[Fuc(a1-6)]GlcNAc
# How it was run: as §1
# [32] = molecular target: Neu5Ac(a2-3)Gal(b1-4)GlcNAc(b1-2)Man(a1-3)[Neu5Ac(a2-6)Gal(b1-4)GlcNAc(b1-2)Man(a1-6)]Man(b1-4)GlcNAc(b1-4)GlcNAc
# How it was run: as §1
# [33] = molecular target: Neu5Ac(a2-3)Gal(b1-4)GlcNAc(b1-2)[Neu5Ac(a2-3)Gal(b1-4)GlcNAc(b1-4)]Man(a1-3)[GlcNAc(b1-4)][Neu5Ac(a2-3)Gal(b1-4)GlcNAc(b1-2)[Neu5Ac(a2-3)Gal(b1-4)GlcNAc(b1-6)]Man(a1-6)]Man(b1-4)GlcNAc(b1-4)GlcNAc
# How it was run: as §1
binder,measurement,setting,value
B1,glycan array binding signal (z-score),[1],0.534
same,glycan array binding signal (z-score),[2],-0.545
same,glycan array binding signal (z-score),[3],-0.36
same,glycan array binding signal (z-score),[4],0.267
same,glycan array binding signal (z-score),Man(a1-6)Man,0.122
same,glycan array binding signal (z-score),Man(b1-4)GlcNAc,0.132
same,glycan array binding signal (z-score),MurNAc(b1-4)GlcNAc,0.202
same,glycan array binding signal (z-score),Neu5Ac(a2-3)Gal,-0.022
same,glycan array binding signal (z-score),[5],-0.368
same,glycan array binding signal (z-score),[6],0.648
same,glycan array binding signal (z-score),[7],-0.178
same,glycan array binding signal (z-score),[8],0.236
same,glycan array binding signal (z-score),[9],-0.385
same,glycan array binding signal (z-score),[10],-0.033
same,glycan array binding signal (z-score),[11],-0.084
same,glycan array binding signal (z-score),[12],0.388
same,glycan array binding signal (z-score),[13],0.002
same,glycan array binding signal (z-score),[14],-0.111
same,glycan array binding signal (z-score),[15],-0.526
same,glycan array binding signal (z-score),[16],-0.06
same,glycan array binding signal (z-score),[17],-0.292
same,glycan array binding signal (z-score),[18],0.867
same,glycan array binding signal (z-score),[19],-0.419
same,glycan array binding signal (z-score),[20],0.052
same,glycan array binding signal (z-score),[21],1.31
same,glycan array binding signal (z-score),[22],-0.584
same,glycan array binding signal (z-score),[23],-0.662
same,glycan array binding signal (z-score),[24],-0.479
same,glycan array binding signal (z-score),[25],-0.176
same,glycan array binding signal (z-score),[26],0.031
same,glycan array binding signal (z-score),Neu5Ac(a2-3)Gal(b1-4)Glc,-0.346
same,glycan array binding signal (z-score),[27],0.231
same,glycan array binding signal (z-score),[28],-0.275
same,glycan array binding signal (z-score),[29],-0.65
same,glycan array binding signal (z-score),[30],-0.408
same,glycan array binding signal (z-score),[31],0.051
same,glycan array binding signal (z-score),[32],-0.298
same,glycan array binding signal (z-score),[33],-0.463
